Test results reported in PubChem BioAssay AID485344 (National Center for Advancing Translational Sciences (NCATS), 2010).
About 6,900 (2%) of roughly 340,000 compounds were called active. Cut-off read from the data, not from the text of the source: active = inhibition above about 30%; inactive = below that, where a call was filed. The entries are a selection whose mix differs from that of the whole data set. Where no call is shown, the source filed none.

Target: D(2) dopamine receptor (Homo sapiens) (UniProt P14416)
Test: HTS Assay for Allosteric Antagonists of the Human D2 Dopamine Receptor: Primary Screen for Antagonists; note: 0% is about no effect
Settings: HEK293 TREx D2 cells, calcium flux, dopamine EC80; at 10 µM; stronger effect = higher value
Summary of the method: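 Dopamine at EC80 is the agonist stimulus; test compounds precede it by 180 s. Calcium flux read kinetically in a force-coupled, inducible HEK293 T-REx D2 cell line.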

Sequence of UniProt P14416 (P14416 whole entry, looked up): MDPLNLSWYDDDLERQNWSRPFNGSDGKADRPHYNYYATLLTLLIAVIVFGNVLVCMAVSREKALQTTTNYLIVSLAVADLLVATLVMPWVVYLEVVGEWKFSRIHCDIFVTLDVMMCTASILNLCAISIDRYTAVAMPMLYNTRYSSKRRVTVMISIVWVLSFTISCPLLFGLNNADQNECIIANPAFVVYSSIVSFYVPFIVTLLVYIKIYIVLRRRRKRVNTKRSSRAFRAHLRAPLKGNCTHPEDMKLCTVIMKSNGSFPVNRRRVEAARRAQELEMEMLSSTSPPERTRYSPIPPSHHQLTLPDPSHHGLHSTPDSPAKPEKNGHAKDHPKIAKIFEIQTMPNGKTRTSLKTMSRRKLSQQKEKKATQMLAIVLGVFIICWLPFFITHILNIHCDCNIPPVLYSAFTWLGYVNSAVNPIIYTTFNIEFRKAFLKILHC

Row | SMILES | inhibition
1 | O=C(NCC(c1ccco1)S(=O)(=O)c1cccs1)c1ccc(F)cc1 (configuration not stated) | 8.37%
2 | CC(=O)Nc1ccc(C2Sc3ccccc3NC3=C2C(=O)c2ccccc23)cc1 (configuration not stated) | -7.27%
3 | CCOC(=O)c1ccc2oc(=O)n(Cc3ccccc3)c2c1 | 10.8%
4 | Cc1oc2ncn(CC(C)C)c(=O)c2c1C(=O)NCCCN1CCCCC1 | -2.21%
5 | O=C(COc1ccc(F)cc1)Nc1ccc2nc(SCC(=O)N3CCc4ccccc43)sc2c1 | 10.6%
6 | COc1ccccc1CNC(=O)c1ccc(N2CCCC2)c(NC(=O)NCCC(C)C)c1 | 18.5%
7 | Cc1cc(C)c(NC(=O)c2cc3sc(Cl)cc3n2C)c(C)c1 | 18.6%
8 | CS(=O)(=O)NCCNC(=O)c1cc(OCC(F)(F)F)ccc1OCC(F)(F)F | active: 30.8%
9 | CCOc1cccc2cc(-c3nc4ccc(C(=O)O)cc4[nH]3)c(=O)oc12 | 22.9%
10 | CCOc1ccc(NC(=O)CSc2nnc3scc(-c4ccc(Cl)cc4)n23)cc1 | -14.3%
11 | COc1ccc(C)cc1S(=O)(=O)N1CCN(c2cccc(Cl)c2)CC1 | 2.32%
12 | COc1cc2oc(=O)c(CC(=O)N3CCCCC3)c(C)c2cc1Cl | 13%
13 | Cc1cccc(-n2c3nc(=O)[nH]c(=O)c-3cc3c(Cl)cccc32)c1C | 5.85%
14 | Cc1cccc(NC(=O)CN(C)C(=O)c2ccc3ccccc3n2)c1C | active: 30.1%
15 | CC(=O)N1CCc2c(sc3c2c(=O)n(-c2ccccc2)c(=O)n3CC(=O)Nc2ccccc2C)C1 | -11.3%
16 | COc1ccc(NC(=O)c2oc3ccccc3c2NC(=O)c2cc3ccccc3o2)cc1 | 11%
17 | COc1ccc2c(c1)CC(NC(=O)Nc1c(C)cc(C)cc1C)CO2 (configuration not stated) | 11.1%
18 | Cc1ccc(OC(=O)c2cc(-c3ccc4c(c3)OCCO4)on2)cc1C | -19.1%
19 | CCOc1ccc(NS(=O)(=O)c2ccc3[nH]cc(C(=O)N(C)Cc4ccccc4)c(=O)c3c2)cc1 | -0.918%
20 | CCOC(=O)c1cccc(NC(=O)c2cc(CN3CCOCC3)on2)c1 | -3.38%
21 | CCN(CC)S(=O)(=O)c1ccc(C(=O)Nc2nc3c(Cl)cc(Cl)cc3s2)cc1 | 1.55%
22 | CCOC(=O)c1ccc(NC(=O)COCc2cc(-c3ccc4c(c3)OCO4)on2)cc1 | -4.94%
23 | N#CCC1c2ccccc2CCN1C(=O)Nc1ccc(C(F)(F)F)cc1 (configuration not stated) | active: 64.6%
24 | CCOC(=O)CNC(=O)N1CCc2cc(S(=O)(=O)N3CCC(C)CC3)ccc21 | -5.82%
25 | CNC(=O)N(O)C1N(/N=C/c2cc(Br)ccc2O)C(=S)SC1(C)C (configuration not stated) | active: 49.5%

Row | SMILES | inhibition
26 | CNC(=O)C1CCC(Cn2c(=O)[nH]c3ccsc3c2=O)CC1 (configuration not stated) | -17.7%
27 | CCOC(=O)c1ccc(N2C(=O)c3n[nH]c(C)c3C2c2ccc(C(C)(C)C)cc2)cc1 (configuration not stated) | 10.6%
28 | Cc1cccc(OC(=O)c2cc(-c3ccc4c(c3)OCCO4)on2)c1 | 7.46%
29 | Cc1ccc(NS(=O)(=O)c2ccc3c(c2)NC(=O)CCS3)cc1C | 14.6%
30 | Cc1ccccc1-n1c(/C=C/c2c(C)n(C)c3ccccc23)nc2ccccc2c1=O | -4.26%
31 | CC(C)(C)OC(=O)N1CCC(c2c(C(=O)N3CCN(c4ncccn4)CC3)cnn2-c2ccccc2)CC1 | -2.52%
32 | CC(C)C12CN3CC(C(C)C)(CN(C1)C3c1ccc(Cl)cc1)C2=O (configuration not stated) | 2.21%
33 | COc1ccc(-c2nc3ccccc3o2)cc1NC(=O)C(C)Oc1ccc(Cl)cc1Cl (configuration not stated) | -25.6%
34 | Cc1nc2ccccc2n1CCc1nc2c3ccccc3nc(SCC(=O)Nc3ccc(Br)cc3F)n2n1 | 3.12%
35 | CN1CCN(c2oc(-c3ccc(COc4ccc(Cl)cc4)o3)nc2C#N)CC1 | -0.477%
36 | N#Cc1nc(-c2ccc(COc3ccccc3)o2)oc1NCc1ccccc1 | 9.75%
37 | O=C(CN1C(=O)CCc2cc(S(=O)(=O)N3CCOCC3)ccc21)Nc1cccc(Cl)c1 | 7.51%
38 | Cc1ccc(CNC(=O)CSc2nc(=O)[nH]c3c2CCCC3)cc1 | 22.6%
39 | CCCSc1ncc(Cl)c(C(=O)N(Cc2ccc(N(C)C)cc2)C2CCS(=O)(=O)C2)n1 (configuration not stated) | 0.95%
40 | COc1ccc(NC(=O)Cn2cnc3sc(C)c(S(=O)(=O)N4CCN(C)CC4)c3c2=O)cc1Cl | 0.528%
41 | CCC(O)c1cc2c(cc1NC(=O)c1cccc(Br)c1)OCCO2 (configuration not stated) | 8.2%
42 | COc1ccc(-c2cn3c(n2)sc2cc(C(=O)NCCCN4CCCCCC4)ccc23)cc1 | -2.28%
43 | CC[C@@]12C(=O)N(c3cccc(Br)c3)C(=O)N1[C@H](c1ccc(Br)cc1)[C@@H]1C(=O)N(C(C)(C)C)C(=O)[C@@H]12 | active: 32.3%
44 | CCCOC(=O)c1c(NC(=O)C2c3ccccc3Oc3ccccc32)sc2c1CCC(C)C2 (configuration not stated) | -5.27%
45 | COc1ccccc1NC(=O)c1c(NCc2ccc(C)o2)sc2c1CCC(C)C2 (configuration not stated) | 4.66%
46 | COCCc1nn2c(=O)cc(COC(=O)COc3ccc(F)cc3)nc2s1 | -4.9%
47 | CCN1CCN(C(c2ccccc2)c2sc3nc(-c4ccco4)nn3c2O)CC1 (configuration not stated) | -22.9%
48 | Cc1ccc(-c2csc(=Nc3ccccc3)n2Cc2ccc3c(c2)OCO3)cc1C | 17%
49 | COc1ccccc1C(=O)n1nc(-c2ccco2)nc1NCc1ccc(Cl)cc1 | 11.7%
50 | CC1=CS(=O)(=O)CC1Sc1nc2ccccc2[nH]1 (configuration not stated) | active: 37.7%

Row | SMILES | inhibition
51 | CC(C(=O)Nc1cc(C(F)(F)F)ccc1Cl)n1nnc2sc3c(c2c1=O)CCCC3 (configuration not stated) | 12.7%
52 | COc1cccc(CNC(=O)c2nn(-c3ccccc3Cl)nc2CO)c1 | 8.62%
53 | Cc1ccc2oc(-c3ccc(C)c(NC(=O)c4ccc(C(C)(C)C)cc4)c3)nc2c1 | 8.26%
54 | CCOC(=O)CNC(=O)c1sc(NC(=O)/C=C/c2ccccc2)nc1C | active: 33.8%
55 | c1csc(C2=NC(c3ccncc3)=Nc3ccccc3N2)c1 | -25.6%
56 | O=C(CSC1=Nc2ccccc2N=C(c2ccc(F)cc2)C1)NCc1ccccc1 | 5.29%
57 | COc1ccc2nc(/N=C(\N)NC(=O)C(C)(C)C)nc(C)c2c1 | active: 35.4%
58 | CC1CCCN(Cc2cn3c(-c4cccc(Br)c4)nnc3s2)C1 (configuration not stated) | -13.7%
59 | O=C(NCCc1ccc(Cl)cc1)c1ccc(Cn2c(=O)c3cccn3c3cccnc32)cc1 | 18.6%
60 | Cc1ccc(CNc2nc3ccccc3c3nc(-c4cccc(C)c4)nn23)cc1 | 4.18%
61 | COc1ccc(Cn2c(CNS(=O)(=O)c3ccc4c(c3)CCCC4)nc3cccnc32)cc1 | 12.8%
62 | O=C(c1cnc(N2CCCCC2)c2ccccc12)N1CCN(c2ccccc2F)CC1 | 19.4%
63 | CCCSc1oc(-c2cccs2)nc1S(=O)(=O)c1ccc(Cl)cc1 | 7.05%
64 | COc1ccc(CNC(=O)CCc2c(C)nn(-c3ccc(N4CCCCC4)nn3)c2C)c(OC)c1 | -9.04%
65 | O=C(c1ccc2c(c1)OCCO2)N(Cc1cccnc1)c1nc2c(F)cccc2s1 | -8.76%
66 | Cc1cccc(-c2noc(CN(C(=O)c3ccccc3Cl)C(C)C)n2)c1 | -7.35%
67 | Cn1c(C(=O)NCCc2ccccc2)cc2c(=O)n3ccccc3nc21 | 26.9%
68 | Cc1ccc(N2CC(NC(=O)c3ccc(S(=O)(=O)N4CCOCC4)cc3)CC2=O)cc1C (configuration not stated) | 20%
69 | CN(C)CCCCOc1ccccc1-c1ccccc1 | active: 70.6%
70 | Cc1cccc(CNC(=O)C2CCN(c3nnc(-n4c(C)ccc4C)s3)CC2)c1 | 7.73%
71 | Cc1cc2oc(=O)c(CC(=O)O)c(C)c2c2occ(-c3ccc(F)cc3)c12 | -6.81%
72 | COc1ccc(NS(=O)(=O)c2cc(Br)cc3c2N(C(C)=O)CC3)cc1 | active: 62.8%
73 | COc1ccc(C2C(=O)N(C3CCC(C)CC3)CC(=O)N2Cc2ccccc2Cl)cc1OC (configuration not stated) | -28.3%
74 | CC(C)(C)c1ccccc1OCC(O)CN1CCN(c2ccccn2)CC1 (configuration not stated) | active: 62.4%
75 | Cc1ccc(Sc2c(C)nn(C(=O)COc3ccc(F)cc3)c2C)cc1 | -0.256%

Row | SMILES | inhibition
76 | O=C(NCCN1CCN(c2ccccc2)CC1)Nc1ccccc1Br | active: 76%
77 | COc1cccc(C2c3c(oc4ccc(C)cc4c3=O)C(=O)N2CCCN2CCOCC2)c1OC (configuration not stated) | -14.7%
78 | Cc1cccc(-c2noc(-c3cccnc3NCc3ccco3)n2)c1 | 18.7%
79 | COc1ccc(-n2c(=O)c3c4c(sc3n(Cc3cc(C)ccc3C)c2=O)CN(C(C)=O)CC4)c(OC)c1 | -17.9%
80 | CCOC(=O)C1(Cc2ccccc2)CCN(Cc2cnn(-c3ccccc3)c2)CC1 | active: 33.3%
81 | CCCn1c2ccccc2c2cnn(CC(=O)N3CCC(C(=O)OCC)CC3)c(=O)c21 | -11.4%
82 | Cc1ccc(CNc2nc3ccccc3n3c(C)nnc23)cc1 | 12.9%
83 | CC(=O)CC1(O)C(=O)N(Cc2ccccc2)c2ccccc21 (configuration not stated) | active: 61.4%
84 | CN(c1ccccc1)S(=O)(=O)c1cccc(NC(=O)CN2CCc3ccccc3C2)c1 | active: 32.8%
85 | N#Cc1nc(/C=C/c2ccc(F)cc2)oc1N1CCN(c2ccccc2)CC1 | 4.07%
86 | O=C(COC(=O)c1ccccc1SCC(=O)N1CCCC1)Nc1ccccc1C(F)(F)F | active: 31.1%
87 | CC(C)c1ccc(OCC(=O)Nc2c(Cl)ccc3nsnc23)cc1 | -4.13%
88 | CC1CCN(c2nn3c(=O)c(C(=O)NCc4ccc(Cl)cc4)cnc3s2)CC1 | -4.99%
89 | Cc1noc(Cn2c(=O)c3ccccc3n(CC(=O)Nc3cccc(Cl)c3C)c2=O)n1 | -4.55%
90 | Cc1cc(C)nc(NC(=O)C(C)N2C(=O)c3ccccc3C2=O)n1 (configuration not stated) | active: 35.4%
91 | CCOC(=O)c1ccc(NC(=O)CSc2c(C(C)C)cnc3c2c(=O)n(C)c(=O)n3C)cc1 | 9.95%
92 | CCCS(=O)(=O)c1nc(S(=O)(=O)c2ccc(C)cc2)c(N(CC)CC)s1 | -4.22%
93 | Cc1cc(C)c2c(CC(=O)Nc3ccc(F)cc3)coc2c1 | -6.55%
94 | Cc1ccc(-n2nc(C)c3nc(CCC(=O)Nc4cccc(C)c4C)c(=O)n(C)c32)cc1 | 2.54%
95 | Cc1cccc(N2C(=O)N(Cc3cc(=O)n4ccccc4n3)c3ccccc3S2(=O)=O)c1 | -12.3%
96 | Cc1ccc2c(c1)C(=O)OC(C(=O)Nc1ncc(Cc3ccccc3Cl)s1)C2 (configuration not stated) | -7.65%
97 | Cc1ccc(-c2cc(-c3ccc4c(c3)NC(=O)CO4)nc3c2COc2ccccc2-3)cc1 | 15.7%
